In one assay the test system is SR leukemia. Nature of the assay: inhibition of tumour cell growth, NCI panel, 48 h.
A further assay relates to CCRF-CEM leukemia. Briefly: inhibition of tumour cell growth, NCI panel, 48 h.

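Step 1: Grow cells in 96-well plates. Step 2: Expose to compound for 48 hours at 5 concentrations. Step 3: Interpolate endpoints linearly; if unreached, use highest concentration. GI50 marks 50% less growth. TGI denotes the concentration required for complete inhibition of growth.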 Active and inactive are the calls of the source.

`NS(=O)(=O)c1ccc(-n2cc(/C=N/Nc3ccc(C(=O)O)cc3)c(-c3ccccc3)n2)cc1`: in the assay with SR leukemia, the GI50 result is “inactive” and the TGI was 7.31 µM. For the same molecule, in the assay on CCRF-CEM leukemia, the GI50 result was “inactive” and the TGI is 19.2 µM.

The record behind these values is PubChem BioAssay (NCI).
